Laboratory results taken from US8022072B2, “Azolylmethylidenehydrazine derivative and use thereof” (Kaken Pharmaceutical Co., Ltd., priority 2007, dated 2011).
The name of at least one read-out is uncertain.

System: Trichophyton mentagrophytes KD-04
Assay: Influence of keratin addition on anti-Trichophyton activity
Type: cell-based
Design: unit not given beside the values
Conditions: SDB + keratin versus SDB alone, T. mentagrophytes KD-04
Method: The MIC increase rate by the addition of keratin to a medium was measured by the following procedure. • Test compound solution: A test compound was dissolved in dimethyl sulfoxide (DMSO) at a concentration of 5 mg/mL as a stock solution. Diluting this solution with DMSO, a 2-fold dilution series was prepared. • Test strain: Trichophyton mentagrophytes KD-04 was used. Preparation of Fungal Inoculum: the Above-Mentioned Strain was suspended in 0.05% Tween 80-containing physiological saline, and adjusted to a fungus concentration of 2×10^6 cells/mL using a counting chamber. […] The physiological saline was removed, and the mixture was further washed once with physiological saline (3 mL). The physiological saline was removed, and a test compound solution (10 μL) and Sabouraud Dextrose Broth (Difco) (500 μL) were added to keratin, and the mixture was sufficiently stirred. Then, inoculum (500 μL) of T. mentagrophytes KD-04 was added, and the mixture was cultured at 30° C. for 7 days. As a comparison control, an experiment similar to the above was performed under conditions free of keratin addition.

First: CCC(C)(C)c1ccc(CC(C)CN2C[C@@H](C)O[C@@H](C)C2)cc1 (stereo partly drawn) [AMF, amorolfine, reference compound]
Second: CN(C)N=C(c1ccccc1OCCc1ccc(N(C)C)cc1)n1ccnc1 [Compound No. 60, N′-[1-imidazol-1-yl-1-[2-(4-dimethylaminophenethyloxy)phenyl]methylidene]-N,N-dimethylhydrazine]
The MIC increase rate of the first is higher: 8 for the first, 2 for the second.

Compared with `CCc1ccccc1C(=NN(C)C)n1ccnc1` [Compound No. 4, N′-[1-(2-ethylphenyl)-1-imidazol-1-ylmethylidene]-N,N-dimethylhydrazine], `CCOc1ccccc1C(=NN(C)C)n1ccnc1` [Compound No. 16, N′-[1-(2-ethoxyphenyl)-1-imidazol-1-ylmethylidene]-N,N-dimethylhydrazine] is lower in MIC increase rate: 2 for the first, 1 for the second.

`CCCOc1ccccc1C(=NN(C)C)n1ccnc1` [Compound No. 17, N′-[1-imidazol-1-yl-1-(2-propoxyphenyl)methylidene]-N,N-dimethylhydrazine] and `CCCCOc1ccccc1C(=NN(C)C)n1ccnc1` [Compound No. 23, N′-[1-(2-butoxyphenyl)-1-imidazol-1-ylmethylidene]-N,N-dimethylhydrazine] are the same in MIC increase rate: 2 for the first, 2 for the second.

Going from `C=CCOc1ccccc1C(=NN(C)C)n1ccnc1` [Compound No. 20, N′-[1-(2-allyloxyphenyl)-1-imidazol-1-ylmethylidene]-N,N-dimethylhydrazine] to `C/C=C\Oc1ccccc1C(=NN(C)C)n1ccnc1` [Compound No. 21, N′-[1-imidazol-1-yl-1-(2-(Z)-propenyloxyphenyl)methylidene]-N,N-dimethylhydrazine], the MIC increase rate falls from 2 to 1.

Going from `CN(C)N=C(c1ccccc1OC(F)(F)F)n1ccnc1` [Compound No. 32, N′-[1-imidazol-1-yl-1-(2-trifluoromethoxyphenyl)methylidene]-N,N-dimethylhydrazine] to `CN(C)N=C(c1ccccc1OC(F)(F)C(F)F)n1ccnc1` [Compound No. 33, N′-[1-imidazol-1-yl-1-[2-(1,1,2,2-tetrafluoroethoxy)phenyl]methylidene]-N,N-dimethylhydrazine], the MIC increase rate falls from 2 to 1.

`COc1ccc(COc2ccccc2C(=NN(C)C)n2ccnc2)cc1` [Compound No. 52, N′-[1-imidazol-1-yl-1-[2-(4-methoxybenzyloxy)phenyl]methylidene]-N,N-dimethylhydrazine] and `COc1ccc(OCCOc2ccccc2C(=NN(C)C)n2ccnc2)cc1` [Compound No. 69, N′-[1-imidazol-1-yl-1-[2-[2-(4-methoxyphenoxy)ethoxy]phenyl]methylidene]-N,N-dimethylhydrazine] are the same in MIC increase rate: 2 for the first, 2 for the second.

`CN(C)N=C(c1ccccc1OCCOc1ccccc1)n1ccnc1` [Compound No. 66, N′-[1-imidazol-1-yl-1-[2-(2-phenoxyethoxy)phenyl]methylidene]-N,N-dimethylhydrazine] and `CN(C)N=C(c1cccn1Cc1ccccc1)n1ccnc1` [Compound No. 105, N′-[1-(1-benzylpyrrol-2-yl)-1-imidazol-1-ylmethylidene]-N,N-dimethylhydrazine] are the same in MIC increase rate: 2 for the first, 2 for the second.

`CCSc1ccccc1C(=NN(C)C)n1ccnc1` [Compound No. 80, N′-[1-(2-ethylthiophenyl)-1-imidazol-1-ylmethylidene]-N,N-dimethylhydrazine] and `CCCSc1ccccc1C(=NN(C)C)n1ccnc1` [Compound No. 81, N′-[1-imidazol-1-yl-1-(2-propylthiophenyl)methylidene]-N,N-dimethylhydrazine] are the same in MIC increase rate: 1 for the first, 1 for the second.

Compared with `CCCCSc1ccccc1C(=NN(C)C)n1ccnc1` [Compound No. 82, N′-[1-(2-butylthiophenyl)-1-imidazol-1-ylmethylidene]-N,N-dimethylhydrazine], `CCC(C)n1ncn(-c2ccc(N3CCN(c4ccc(OCC5COC(Cn6cncn6)(c6ccc(Cl)cc6Cl)O5)cc4)CC3)cc2)c1=O` (stereo not drawn) [ITCZ, itraconazole, reference compound] is higher in MIC increase rate: 2 for the first, 512 for the second.
